# The campaign covered roughly 310,000 compounds. About 2,200 (0.71%) showed an effect of 50% or more. Effects have a minus sign here. The list shows a part of the results.
# Target: human ether-à-go-go-related gene (hERG) potassium channel (human, UniProt Q12809)
# Test: primary screen, population patch clamp on CHO cells stably expressing hERG
# Sequence of human ether-à-go-go-related gene (hERG) potassium channel (Q12809 whole entry, looked up): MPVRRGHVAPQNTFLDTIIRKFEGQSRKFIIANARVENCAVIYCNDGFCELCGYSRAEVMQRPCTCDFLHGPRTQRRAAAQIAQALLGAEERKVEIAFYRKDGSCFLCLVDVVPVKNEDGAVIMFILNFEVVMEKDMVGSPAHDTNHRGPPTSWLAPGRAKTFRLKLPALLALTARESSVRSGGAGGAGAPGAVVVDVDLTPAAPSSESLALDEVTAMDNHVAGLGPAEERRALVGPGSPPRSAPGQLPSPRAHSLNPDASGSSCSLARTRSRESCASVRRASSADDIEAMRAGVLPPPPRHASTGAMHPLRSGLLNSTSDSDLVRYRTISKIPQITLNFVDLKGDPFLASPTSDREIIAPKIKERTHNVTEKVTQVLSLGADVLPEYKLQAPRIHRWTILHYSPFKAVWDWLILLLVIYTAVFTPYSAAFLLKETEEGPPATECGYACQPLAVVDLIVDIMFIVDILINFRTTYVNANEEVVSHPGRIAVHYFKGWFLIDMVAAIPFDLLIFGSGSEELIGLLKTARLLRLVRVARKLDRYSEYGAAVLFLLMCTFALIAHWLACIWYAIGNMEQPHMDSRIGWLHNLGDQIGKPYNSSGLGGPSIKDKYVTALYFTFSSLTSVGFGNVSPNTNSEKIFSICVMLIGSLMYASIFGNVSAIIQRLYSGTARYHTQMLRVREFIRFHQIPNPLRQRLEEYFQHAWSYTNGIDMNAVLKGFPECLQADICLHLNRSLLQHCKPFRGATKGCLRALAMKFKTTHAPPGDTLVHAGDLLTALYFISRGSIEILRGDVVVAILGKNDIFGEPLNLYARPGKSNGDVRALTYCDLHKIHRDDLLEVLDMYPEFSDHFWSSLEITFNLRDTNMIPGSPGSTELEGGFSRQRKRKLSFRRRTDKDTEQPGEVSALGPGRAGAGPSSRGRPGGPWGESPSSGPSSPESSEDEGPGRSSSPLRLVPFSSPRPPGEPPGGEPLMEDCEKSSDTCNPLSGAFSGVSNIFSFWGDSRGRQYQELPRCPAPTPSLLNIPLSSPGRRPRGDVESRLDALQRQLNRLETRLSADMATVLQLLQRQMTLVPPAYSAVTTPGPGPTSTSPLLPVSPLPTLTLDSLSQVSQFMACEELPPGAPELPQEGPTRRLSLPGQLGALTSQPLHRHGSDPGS
row,SMILES,"hERG current change (%, negative = inhibition) at 1uM [%]"
1,Cc1ccc(N2CS(=O)(=O)/C(=C/N(C)C)C2=O)cc1,5.99
2,COc1ccc(NC(=O)Cc2c(C)n(C(=O)c3ccc(Cl)cc3)c3ccc(OC)cc23)cc1,8.49
3,Cc1cc(Nc2ccccc2)n(-c2cccc(Cl)c2)n1,11.2
4,CCn1nc(CC(C)C)cc1C(=O)N1CCCC(Nc2ccc(F)cc2)C1 (stereo not shown),2.47
5,O=C(Cn1ncc(Cl)c(Cl)c1=O)c1ccc(Cl)cc1,0.544
6,COc1ccc(C(=O)Cc2ccc(OC)c(OC)c2)cc1,13.1
7,CN(Cc1ccccc1)C(=O)CN(C)S(=O)(=O)c1ccc(F)cc1,9.11
8,COc1ccc(NC(=O)CNC(=O)N2CC(=O)Nc3ccccc32)cc1OC,25.4
9,COc1ccc(CC(=O)Oc2ccccc2Cl)cc1S(=O)(=O)N1CCOCC1,17.1
10,CC(C)(NO)/C(=N/O)c1ccc(Br)cc1,3.45
11,O=C(/C=C/c1ccco1)Nc1ccc(-c2nc3ccccc3[nH]2)cc1,6.91
12,O=C(NNC(=O)c1ccccc1Cl)c1ccncc1,8.77
13,CCOC(=O)N1CCN(C(=O)c2oc3ccc(S(=O)(=O)N(CC)CC)cc3c2C)CC1,15.7
14,Cc1cc(N(CCO)CCO)ccc1C(c1ccc(N(CCO)CCO)cc1C)c1ccccc1Cl,5.61
15,Cc1nn(-c2ccccc2)c(C)c1/C=N/n1c(-c2ccccc2Br)n[nH]c1=S,12.5
16,Cc1ccc(NC(=S)N2CCCCCC2)c(C)c1,-3.24
17,Cc1ccc(S(=O)(=O)NCC(=O)OCc2ccccc2Br)cc1,5.33
18,COc1ccc(S(=O)(=O)NCC(=O)NCc2cc(=O)n(C)c(=O)n2C)cc1F,16.4
19,CCOC(=O)C(C(=O)OCC)c1cc(Br)c2noc3c2c1C(=O)c1ccccc1-3,15.3
20,CCC(=O)N1CCc2cc(S(=O)(=O)N3CCN(c4ccccc4Cl)CC3)ccc21,9.64

row,SMILES,"hERG current change (%, negative = inhibition) at 1uM [%]"
1,O=C(O)c1cccc(N(CCO)CCO)c1,2.58
2,CC1CCCCC1N=CC1=C(O)CC(C)(C)CC1=O (stereo not shown),9.16
3,Cc1cccc(/C=N/c2sc3c(c2C#N)CCN(Cc2ccccc2)C3)c1O,10.9
4,O=C(Nc1ccccc1F)N(CCCN1CCOCC1)Cc1cc2cc3c(cc2[nH]c1=O)OCCO3,9.36
5,O=C1Nc2ccc(Br)cc2C1=Nc1ccc(-c2nnc3n2CCCCC3)cc1,9.81
6,NC(=O)C1CCN(C(=O)/C=C/c2cc(Br)ccc2F)CC1,11.9
7,Cc1ccccc1N=C1c2ccccc2C(=O)C1[N+](=O)[O-] (stereo not shown),-3.54
8,Cc1cc(N/C(=N\S(=O)(=O)c2ccc(F)cc2F)c2ccccc2)no1,-4.58
9,Cc1cc(C(=O)Nc2sc3c(c2C#N)CCC(C)C3)no1 (stereo not shown),11.6
10,CCOC(=O)Cc1csc(NC(=O)/C=C/c2ccccc2Cl)n1,9.26
11,COc1cccc(CNC(=S)NC2CC2)c1,17.2
12,O=C(NC(=S)NNS(=O)(=O)c1ccccc1)c1cccnc1,17.3
13,Cc1nc2sc3c(c2c(=O)o1)CCCC3,7.29
14,COc1ccc(CNC(=O)C(C)OC(=O)CCN2C(=O)C3CC=CCC3C2=O)cc1 (stereo not shown),6.55
15,Cc1ccccc1C1CC(c2ccc(F)cc2)Nc2nc(N)nn21 (stereo not shown),-18.2
16,Cc1cccc(C(=O)OC(C)CN2CCCC2)c1.Cl (stereo not shown),13.4
17,Cc1onc(-c2ccccc2)c1CNC(=O)C1COc2ccccc2O1 (stereo not shown),1.47
18,COc1ccc(C)cc1NC(=O)C1COc2ccccc2O1 (stereo not shown),5.27
19,CC(C)C(=O)Nc1ccc(N2CCN(c3ccc(F)cc3)CC2)cc1,12.7
20,CSCC[C@H](NC(=O)N1CCn2c1nc1ccccc12)C(=O)N[C@@H](C(=O)O)c1ccccc1,-1.35

row,SMILES,"hERG current change (%, negative = inhibition) at 1uM [%]"
1,COc1cccc(C2=NOC(C(=O)Nc3ccc(C(C)=O)cc3)C2)c1 (stereo not shown),0.0862
2,CCOC(=O)C(NC(C)=O)(NC(C)C)C(F)(F)F (stereo not shown),11.3
3,CCOC(=O)N1CCC(N2CCCC(C(=O)c3cc(C)c(OC)c(C)c3)C2)CC1 (stereo not shown),-28.1
4,O=C(Cn1cnc2cc([N+](=O)[O-])ccc2c1=O)NCc1ccccc1,5.57
5,Cn1c(=O)c2c(nc(CN3CCC(C(N)=O)CC3)n2Cc2ccccc2Cl)n(C)c1=O,7.64
6,Cc1ccc(NC(=O)COC(=O)C2CC2)c(Br)c1,7.04
7,CC(C(=O)OCC(=O)Nc1ccc(S(=O)(=O)N2CCCCC2)cc1)N1C(=O)c2ccccc2C1=O (stereo not shown),12.9
8,COC(=O)c1ccc(C(=O)N(C)C2CCCN(Cc3ccccc3F)C2)cc1 (stereo not shown),3.95
9,Cc1ccc(NC(=O)c2cccc(S(=O)(=O)N(C)c3ccccc3)c2)cc1S(=O)(=O)N1CCOCC1,9.86
10,CC1CC(C)CN(CC(=O)N2CCOCC2)C1.Cl (stereo not shown),8.87
11,COC(=O)CCN(C(=O)c1cccc(OC(C)=O)c1)c1ccccn1,11.4
12,Cc1ccc(C2N(c3nccs3)C(=O)C3CCCN32)cc1 (stereo not shown),6.75
13,O=C(Nc1ccc2nc(-c3ccccc3)[nH]c2c1)c1cccs1,1.23
14,COc1ccc2c(C)cc3n[nH]c(=S)n3c2c1,10.7
15,CC1/C(=N/O)CC(c2ccccc2)N(C)C1c1ccccc1 (stereo not shown),14.2
16,O=S(=O)(NC1CCSc2ccccc21)c1ccc(Cl)nc1 (stereo not shown),7.47
17,Cc1ccc(Nc2nc3c([nH]2)c(=O)n(C)c(=O)n3C)cc1,4.74
18,CNC(=S)NNC(=O)Cn1ccc(C)n1,-0.173

# Source: paper PMC4336329 (PLoS ONE, 2015)
